The other results are listed elsewhere or left out. Many values rest on one well or one pass, so single values are uncertain.
tested on: RPMI7951; experiment: cell count relative to DMSO control; melanoma cells; higher = more viable cells; conditions: library dose: low library concentration; 72 h
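Also: cell number obtained by counting DAPI-stained nuclei in high-throughput microscope images with image analysis software, screen run in 1,536-well plates.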

Row | SMILES | cell count
1 | Nc1ccn([C@@H]2O[C@H](CO)[C@@H](O)C2(F)F)c(=O)n1 [gemcitabine] + O=C(CCCCCCC(=O)Nc1ccccc1)NO [vorinostat] (first compound 0.0004 µM, partner dose 0.08 µM) | 100%
2 | Nc1nc(F)nc2c1ncn2[C@@H]1O[C@H](CO)[C@@H](O)[C@@H]1O [fludarabine] + Oc1nc(-c2ccc(C(F)(F)F)cc2)nc2c1CSCC2 [XAV939] (first compound 0.2 µM, partner dose 2 µM) | 85.4%
3 | Nc1ccn([C@@H]2O[C@H](CO)[C@@H](O)C2(F)F)c(=O)n1 [gemcitabine] + O=C(Nc1ccccc1)c1cc([N+](=O)[O-])ccc1Cl [GW9662] (first compound 0.0004 µM, partner dose 2 µM) | 75%
4 | CO[C@H]1C[C@@H]2CC[C@@H](C)[C@@](O)(O2)C(=O)C(=O)N2CCCC[C@H]2C(=O)O[C@H]([C@H](C)C[C@@H]2CC[C@@H](OCCO)[C@H](OC)C2)CC(=O)[C@H](C)/C=C(\C)[C@@H](O)[C@@H](OC)C(=O)[C@H](C)C[C@H](C)/C=C/C=C/C=C/1C [everolimus] + COc1ccc(Cl)c(Nc2nc3ccccc3nc2NS(=O)(=O)c2cccc(NC(=O)C(C)(C)N)c2)c1 [XL147] (first compound 0.02 µM, partner dose 0.8 µM) | 87.3%
5 | Nc1ccn([C@@H]2O[C@H](CO)[C@@H](O)C2(F)F)c(=O)n1 [gemcitabine] + C#Cc1cccc(Nc2ncnc3cc(OCCOC)c(OCCOC)cc23)c1 [erlotinib] (first compound 0.0004 µM, partner dose 0.8 µM) | 78.5%
6 | CO[C@H]1C[C@@H]2CC[C@@H](C)[C@@](O)(O2)C(=O)C(=O)N2CCCC[C@H]2C(=O)O[C@H]([C@H](C)C[C@@H]2CC[C@@H](OCCO)[C@H](OC)C2)CC(=O)[C@H](C)/C=C(\C)[C@@H](O)[C@@H](OC)C(=O)[C@H](C)C[C@H](C)/C=C/C=C/C=C/1C [everolimus] + CN(C)S(=O)(=O)c1ccc2c(c1)/C(=C/c1cc3c([nH]1)CCCC3)C(=O)N2 [SU6656] (first compound 0.02 µM, partner dose 0.4 µM) | 104%
7 | CO[C@H]1C[C@@H]2CC[C@@H](C)[C@@](O)(O2)C(=O)C(=O)N2CCCC[C@H]2C(=O)O[C@H]([C@H](C)C[C@@H]2CC[C@@H](OCCO)[C@H](OC)C2)CC(=O)[C@H](C)/C=C(\C)[C@@H](O)[C@@H](OC)C(=O)[C@H](C)C[C@H](C)/C=C/C=C/C=C/1C [everolimus] + Nc1nc(F)nc2c1ncn2[C@@H]1O[C@H](CO)[C@@H](O)[C@@H]1O [fludarabine] (first compound 0.02 µM, partner dose 0.2 µM) | 67.3%
8 | CO[C@H]1C[C@@H]2CC[C@@H](C)[C@@](O)(O2)C(=O)C(=O)N2CCCC[C@H]2C(=O)O[C@H]([C@H](C)C[C@@H]2CC[C@@H](OCCO)[C@H](OC)C2)CC(=O)[C@H](C)/C=C(\C)[C@@H](O)[C@@H](OC)C(=O)[C@H](C)C[C@H](C)/C=C/C=C/C=C/1C [everolimus] + CC(=O)c1c(C)c2cnc(Nc3ccc(N4CCNCC4)cn3)nc2n(C2CCCC2)c1=O [palbociclib] (first compound 0.02 µM, partner dose 0.04 µM) | 80.4%
9 | CC(=O)O[C@@]12CO[C@@H]1C[C@H](O)[C@@]1(C)C(=O)[C@H](O)C3=C(C)[C@@H](OC(=O)[C@H](O)[C@@H](NC(=O)OC(C)(C)C)c4ccccc4)C[C@@](O)([C@@H](OC(=O)c4ccccc4)[C@H]21)C3(C)C [Docetaxel] + CC(C)C[C@H](NC(=O)[C@H](Cc1ccccc1)NC(=O)c1cnccn1)B(O)O [Bortezomib] (first compound 0.0001 µM, partner dose 0.001 µM) | 25.1%
10 | CO[C@H]1C[C@@H]2CC[C@@H](C)[C@@](O)(O2)C(=O)C(=O)N2CCCC[C@H]2C(=O)O[C@H]([C@H](C)C[C@@H]2CC[C@@H](OCCO)[C@H](OC)C2)CC(=O)[C@H](C)/C=C(\C)[C@@H](O)[C@@H](OC)C(=O)[C@H](C)C[C@H](C)/C=C/C=C/C=C/1C [everolimus] + Nc1ncn([C@H]2C[C@H](O)[C@@H](CO)O2)c(=O)n1 [decitabine] (first compound 0.02 µM, partner dose 0.1 µM) | 81.5%
11 | CC(=O)O[C@@]12CO[C@@H]1C[C@H](O)[C@@]1(C)C(=O)[C@H](O)C3=C(C)[C@@H](OC(=O)[C@H](O)[C@@H](NC(=O)OC(C)(C)C)c4ccccc4)C[C@@](O)([C@@H](OC(=O)c4ccccc4)[C@H]21)C3(C)C [Docetaxel] + O=C(O)c1ccc2c(c1)nc(Nc1cccc(Cl)c1)c1ccncc12 [CX4945] (first compound 0.0001 µM, partner dose 0.4 µM) | 35%
12 | Nc1ccn([C@@H]2O[C@H](CO)[C@@H](O)C2(F)F)c(=O)n1 [gemcitabine] + Cn1cc(/C=C2\C(=O)Nc3cccnc32)c2ccccc21 [GW441756] (first compound 0.0004 µM, partner dose 0.4 µM) | 94.1%
13 | CO[C@H]1C[C@@H]2CC[C@@H](C)[C@@](O)(O2)C(=O)C(=O)N2CCCC[C@H]2C(=O)O[C@H]([C@H](C)C[C@@H]2CC[C@@H](OCCO)[C@H](OC)C2)CC(=O)[C@H](C)/C=C(\C)[C@@H](O)[C@@H](OC)C(=O)[C@H](C)C[C@H](C)/C=C/C=C/C=C/1C [everolimus] + OCCn1cc(-c2cnc3nnn(Cc4ccc5ncccc5c4)c3n2)cn1 [PF04217903] (first compound 0.02 µM, partner dose 1 µM) | 103%
14 | CC(=O)O[C@@]12CO[C@@H]1C[C@H](O)[C@@]1(C)C(=O)[C@H](O)C3=C(C)[C@@H](OC(=O)[C@H](O)[C@@H](NC(=O)OC(C)(C)C)c4ccccc4)C[C@@](O)([C@@H](OC(=O)c4ccccc4)[C@H]21)C3(C)C [Docetaxel] + Cc1cc([N+](=O)[O-])ccc1NS(=O)(=O)c1cc(Cl)ccc1Cl [FH535] (first compound 0.0001 µM, partner dose 1 µM) | 39.3%
15 | CO[C@H]1C[C@@H]2CC[C@@H](C)[C@@](O)(O2)C(=O)C(=O)N2CCCC[C@H]2C(=O)O[C@H]([C@H](C)C[C@@H]2CC[C@@H](OCCO)[C@H](OC)C2)CC(=O)[C@H](C)/C=C(\C)[C@@H](O)[C@@H](OC)C(=O)[C@H](C)C[C@H](C)/C=C/C=C/C=C/1C [everolimus] + COCC[n+]1c2c(n(Cc3cnccn3)c1C)C(=O)c1ccccc1C2=O [YM155] (first compound 0.02 µM, partner dose 0.0004 µM) | 89.2%
16 | CO[C@H]1C[C@@H]2CC[C@@H](C)[C@@](O)(O2)C(=O)C(=O)N2CCCC[C@H]2C(=O)O[C@H]([C@H](C)C[C@@H]2CC[C@@H](OCCO)[C@H](OC)C2)CC(=O)[C@H](C)/C=C(\C)[C@@H](O)[C@@H](OC)C(=O)[C@H](C)C[C@H](C)/C=C/C=C/C=C/1C [everolimus] + C=CCNC1=C2C[C@@H](C)C[C@H](OC)[C@H](O)[C@@H](C)/C=C(\C)[C@H](OC(N)=O)[C@@H](OC)/C=C\C=C(/C)C(=O)NC(=CC1=O)C2=O [Tanespimycin] (first compound 0.02 µM, partner dose 0.002 µM) | 69.5%
17 | Nc1nc(F)nc2c1ncn2[C@@H]1O[C@H](CO)[C@@H](O)[C@@H]1O [fludarabine] + Cn1nnc2c(C(N)=O)ncn2c1=O [temozolomide] (first compound 0.2 µM, partner dose 2 µM) | 79%
18 | CC(=O)c1c(C)c2cnc(Nc3ccc(N4CCNCC4)cn3)nc2n(C2CCCC2)c1=O [palbociclib] + O=S(=O)(c1ccccc1)N(CC(F)(F)F)c1ccc(C(O)(C(F)(F)F)C(F)(F)F)cc1 [T0901317] (first compound 0.04 µM, partner dose 1.4 µM) | 61.4%
19 | CO[C@H]1C[C@@H]2CC[C@@H](C)[C@@](O)(O2)C(=O)C(=O)N2CCCC[C@H]2C(=O)O[C@H]([C@H](C)C[C@@H]2CC[C@@H](OCCO)[C@H](OC)C2)CC(=O)[C@H](C)/C=C(\C)[C@@H](O)[C@@H](OC)C(=O)[C@H](C)C[C@H](C)/C=C/C=C/C=C/1C [everolimus] + CCCS(=O)(=O)Nc1ccc(F)c(C(=O)c2c[nH]c3ncc(Cl)cc23)c1F [PLX4720] (first compound 0.02 µM, partner dose 0.08 µM) | 64.9%
20 | Nc1ncn([C@H]2C[C@H](O)[C@@H](CO)O2)c(=O)n1 [decitabine] + Cn1cncc1[C@@](N)(c1ccc(Cl)cc1)c1ccc2c(c1)c(-c1cccc(Cl)c1)cc(=O)n2C [tipifarnib] (first compound 0.1 µM, partner dose 0.01 µM) | 75.1%
21 | CO[C@H]1C[C@@H]2CC[C@@H](C)[C@@](O)(O2)C(=O)C(=O)N2CCCC[C@H]2C(=O)O[C@H]([C@H](C)C[C@@H]2CC[C@@H](OCCO)[C@H](OC)C2)CC(=O)[C@H](C)/C=C(\C)[C@@H](O)[C@@H](OC)C(=O)[C@H](C)C[C@H](C)/C=C/C=C/C=C/1C [everolimus] + Nc1ccn([C@@H]2O[C@H](CO)[C@@H](O)C2(F)F)c(=O)n1 [gemcitabine] (first compound 0.02 µM, partner dose 0.0004 µM) | 91.4%

Reference: the supplement of paper PMC4604168 (melanoma cell lines)
